The list shows a part of the results. The list includes weakly bound sequences.

The test has as its target MaxL homodimer (UniProt P61244). Description: universal protein-binding microarray (PBM). The following applies: PBS-based mixture, 10 nM His-tagged protein dimer, 2% milk, 200 ng/uL BSA, 50 ng/uL salmon testes DNA, 0.02% TX-100; detection with Alexa 488 anti-His …; high values mean tight binding; most listed sequences are background and not binding sites; double strand, one strand shown.
Sequence of UniProt P61244 (P61244 whole entry): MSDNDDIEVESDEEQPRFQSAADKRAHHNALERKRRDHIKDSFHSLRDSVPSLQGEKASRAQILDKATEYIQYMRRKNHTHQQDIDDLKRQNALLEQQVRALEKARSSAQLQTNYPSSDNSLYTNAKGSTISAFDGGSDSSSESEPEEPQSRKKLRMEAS
With TCGAGGAA, the binding signal (normalized occupancy) was 0.0734. For the sequence CCATGCGG, the binding signal (normalized occupancy) was 0.145.

For CATAGAGC, the binding signal (normalized occupancy) stood at 0.0703.

Take GCTATTAC: the binding signal (normalized occupancy) amounted to 0.0796. In the case of AAAGGCGT it was 0.0786; in that of ATCGACGC, 0.0747; in that of GCAGCTAA, 0.0644.

In the case of ACTACTAT, the binding signal (normalized occupancy) was determined as 0.0796. AATACGGC: the binding signal (normalized occupancy) was 0.0752. In the case of ACTGACCC it was 0.071. On to AGGCAGGC, for which the binding signal (normalized occupancy) was 0.0704. In the case of CTGTTCTA it was 0.0715; in that of AGTTTGGA, 0.0697.

On to GGGTCCTA, for which the binding signal (normalized occupancy) amounted to 0.0766. As for GTCTTCTA, the figure is 0.0715; as for ATTCACGA, 0.0811. On to CGTGGCAA, for which the binding signal (normalized occupancy) was 0.0854. As for GATGTAAC, the figure is 0.0737. In the case of AGGTGATG it was 0.0834; in that of ACACAATG, 0.0862. In the case of GACGGGAC, the binding signal (normalized occupancy) stood at 0.0691. In the case of CGCAGCCA it was 0.0737; in that of CCATGAGG, 0.112; in that of ATGTTGCC, 0.0821. With CGAATGGA, the binding signal (normalized occupancy) came to 0.0769. In the case of AATGGTCC, the binding signal (normalized occupancy) is 0.076.

As for AGAGATGG, the binding signal (normalized occupancy) was found to be 0.0775. For AAGGGCGT, the binding signal (normalized occupancy) came to 0.0776. AAAGCTCT: the binding signal (normalized occupancy) was determined as 0.0662. In the case of CGTGGTGA it was 0.0873; in that of AGGGTACT, 0.0763; in that of AACTGCTA, 0.0748.

As for GGGGTTAC, the binding signal (normalized occupancy) was determined as 0.0754.

AAGTTGGG: the binding signal (normalized occupancy) was determined as 0.0725. For the sequence ATAAGACA, the binding signal (normalized occupancy) came to 0.0814.

In the case of AATCCACG, the binding signal (normalized occupancy) amounted to 0.0813. As for AGCGCGAA, the figure is 0.0706; as for CAACGAGC, 0.0753; as for CTTCCGCA, 0.0717. As for ATATTAAC, the binding signal (normalized occupancy) is 0.0811. For CTGCGCCA, the binding signal (normalized occupancy) was found to be 0.071.

As for GTACAATA, the binding signal (normalized occupancy) was found to be 0.0724.

For AACACTGT, the binding signal (normalized occupancy) was 0.075. As for GCCTGGCA, the figure is 0.0722; as for GACGCTCC, 0.0684; as for ACTACGGA, 0.0737. In the case of ACCGCTGG it was 0.0691; in that of CCTATGAG, 0.0757. ACTGGTAA: the binding signal (normalized occupancy) worked out at 0.0679. In the case of CCATCGAA it was 0.0774. On to CTGGTGAC, for which the binding signal (normalized occupancy) is 0.0739. As for AGCTGTGC, the figure is 0.076; as for AGCGAGAA, 0.0736.

For the sequence CATCTTCA, the binding signal (normalized occupancy) stood at 0.0786.

AGCCCCGC: the binding signal (normalized occupancy) came to 0.0752.

Take TACTAAAA: the binding signal (normalized occupancy) stood at 0.0751. In the case of AGTGACAT it was 0.0809.

Turning to TATTCGCA, the binding signal (normalized occupancy) stood at 0.0764. In the case of CATGCACC it was 0.0986; in that of AAGTAGCT, 0.077; in that of CTACATAA, 0.0783.

With GTAACAGA, the binding signal (normalized occupancy) was 0.0764. Regarding CAGAGTGG, the binding signal (normalized occupancy) was determined as 0.0742. Take CGGACACG: the binding signal (normalized occupancy) was 0.0853.

Take CACGCCCC: the binding signal (normalized occupancy) turned out to be 0.0836.

Take ACATCTCA: the binding signal (normalized occupancy) came out at 0.082.

Take CACAATAG: the binding signal (normalized occupancy) came out at 0.0745. For CAACAGAA, the binding signal (normalized occupancy) turned out to be 0.0741. As for CGCTATCC, the figure is 0.0788; as for ACGGAACT, 0.0707; as for TGCAATAA, 0.0785. Turning to ACCCGACT, the binding signal (normalized occupancy) worked out at 0.0759. In the case of GTGGGCAA it was 0.0738. For the sequence CACTCTTC, the binding signal (normalized occupancy) was 0.0777.

For the sequence GTCTTTGA, the binding signal (normalized occupancy) came out at 0.0743.

On to GTAATCAC, for which the binding signal (normalized occupancy) is 0.0838. For CATGATGC, the binding signal (normalized occupancy) is 0.0927. In the case of CGAGAAAG, the binding signal (normalized occupancy) came out at 0.0717. Take CCTTCATC: the binding signal (normalized occupancy) was 0.0752. As for ATAAGGAT, the figure is 0.0805; as for ACTCGGGC, 0.0729. CACTAGCG: the binding signal (normalized occupancy) was 0.0725. On to AAGAACCC, for which the binding signal (normalized occupancy) turned out to be 0.0724.

As for GACCTTCC, the binding signal (normalized occupancy) was 0.0735. As for AACTGGGC, the binding signal (normalized occupancy) was 0.0659. Consider CATCCATG, for which the binding signal (normalized occupancy) was 0.0885.

As for GAACAAAC, the binding signal (normalized occupancy) was determined as 0.0755.

ACGTCGTG: the binding signal (normalized occupancy) came out at 0.0854. Regarding CACCGGTA, the binding signal (normalized occupancy) came to 0.0714. In the case of CCCGTCAC it was 0.0706; in that of AGGCTGAC, 0.0721. As for GCCCTTAC, the figure is 0.0732; as for TACTATCA, 0.0801; as for CCCCGGCG, 0.0717. As for AGATATCA, the figure is 0.0855. Consider AGTCACAT, for which the binding signal (normalized occupancy) came to 0.101.

As to GCTGTTGA, the binding signal (normalized occupancy) was 0.0741.

For AAGTTGCC, the binding signal (normalized occupancy) amounted to 0.0725. As for GCGACCGC, the figure is 0.0711; as for AAAGTTAT, 0.0744. In the case of AATAAACC it was 0.073. With AGCTACTC, the binding signal (normalized occupancy) turned out to be 0.0687. With AACAGCAC, the binding signal (normalized occupancy) came out at 0.0765.

For the sequence AGATCGCA, the binding signal (normalized occupancy) worked out at 0.077.

AATCTGCA: the binding signal (normalized occupancy) is 0.0834. With ACTCCCGG, the binding signal (normalized occupancy) was found to be 0.0685. With TTCTAAAA, the binding signal (normalized occupancy) was determined as 0.0721. CCAAACAA: the binding signal (normalized occupancy) was 0.072. As for AGTGGAGC, the figure is 0.0744.

The values above are taken from PMC4242493.
